# Hit rate of the full screen: of about 310,000 compounds, about 2,200 (0.71%) showed an effect of 50% or more. Effects have a minus sign here. The list shows a part of the results.
# Molecular target: human ether-à-go-go-related gene (hERG) potassium channel (human, UniProt Q12809)
# Assay: primary screen, population patch clamp on CHO cells stably expressing hERG
# human ether-à-go-go-related gene (hERG) potassium channel, sequence (Q12809 whole entry, looked up): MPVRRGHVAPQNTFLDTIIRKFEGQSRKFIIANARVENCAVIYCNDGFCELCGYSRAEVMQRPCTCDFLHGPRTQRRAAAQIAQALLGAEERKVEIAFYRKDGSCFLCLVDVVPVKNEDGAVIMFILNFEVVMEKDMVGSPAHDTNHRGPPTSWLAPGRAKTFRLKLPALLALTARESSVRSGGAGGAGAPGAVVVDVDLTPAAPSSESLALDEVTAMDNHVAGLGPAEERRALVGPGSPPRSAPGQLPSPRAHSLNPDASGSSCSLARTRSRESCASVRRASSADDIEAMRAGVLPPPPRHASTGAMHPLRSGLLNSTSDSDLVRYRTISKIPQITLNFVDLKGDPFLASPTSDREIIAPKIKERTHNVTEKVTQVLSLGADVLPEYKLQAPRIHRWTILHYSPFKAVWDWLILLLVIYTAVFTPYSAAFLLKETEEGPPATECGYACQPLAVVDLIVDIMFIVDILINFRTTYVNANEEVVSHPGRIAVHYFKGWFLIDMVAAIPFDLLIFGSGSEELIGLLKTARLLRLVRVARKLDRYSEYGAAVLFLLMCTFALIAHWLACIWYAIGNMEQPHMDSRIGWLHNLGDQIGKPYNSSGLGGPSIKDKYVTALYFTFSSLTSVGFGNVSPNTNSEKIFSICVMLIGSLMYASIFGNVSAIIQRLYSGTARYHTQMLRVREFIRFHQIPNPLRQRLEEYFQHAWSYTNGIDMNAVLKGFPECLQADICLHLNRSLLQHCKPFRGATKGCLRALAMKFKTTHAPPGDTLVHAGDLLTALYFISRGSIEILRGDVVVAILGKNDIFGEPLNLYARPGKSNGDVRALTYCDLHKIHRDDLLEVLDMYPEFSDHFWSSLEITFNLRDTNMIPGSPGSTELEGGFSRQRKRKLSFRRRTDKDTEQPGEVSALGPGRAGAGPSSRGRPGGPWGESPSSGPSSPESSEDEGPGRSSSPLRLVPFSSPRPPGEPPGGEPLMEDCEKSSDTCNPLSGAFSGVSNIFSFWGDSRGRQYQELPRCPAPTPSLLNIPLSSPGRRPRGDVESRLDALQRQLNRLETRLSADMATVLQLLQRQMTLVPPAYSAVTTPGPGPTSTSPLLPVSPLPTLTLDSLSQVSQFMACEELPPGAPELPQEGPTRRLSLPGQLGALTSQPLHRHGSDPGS
row,Compound,"hERG current change (%, negative = inhibition) at 1uM"
1,Cn1c(=O)c2c(nc(N3CCOCC3)n2CCSc2ncccn2)n(C)c1=O,4.67%
2,CCN(CC)C(=O)N1CCN(C(=O)N2CCOCC2)CC1,8.81%
3,O=C1CCC(C(=O)O)(c2ccccc2)C1 (stereo not shown),12.2%
4,COC(=O)c1cc(Br)c(=O)n(CC(C)C)c1,12.4%
5,Cc1ccc(NC(=O)c2ccc([N+](=O)[O-])o2)cc1C,10.5%
6,Cc1cc(/C=N/Nc2ncnc(N)c2[N+](=O)[O-])c(C)n1-c1ccccc1,9.92%
7,COc1ccccc1N(C)S(=O)(=O)c1ccc(C(=O)NCc2ccc3c(c2)OCO3)cc1,7.93%
8,CC(C)(C)NC(=O)C(c1ccc(F)cc1)N(Cc1ccco1)C(=O)CCC(=O)Nc1nccs1 (stereo not shown),8.86%
9,Cc1ccc(SCc2nc3ccccc3n2CC(=O)Nc2c(C)cccc2C)cc1,6.88%
10,S=C(NCc1ccc2c(c1)OCO2)NCc1ccc2c(c1)OCO2,-1.56%
11,O=C(Cn1nc(-c2ccc(F)cc2)ccc1=O)Nc1ccc2c(c1)OCCO2,12.8%
12,O=C(CN1CCCc2ccccc21)NCc1ccccc1Cl,14%
13,O=C(Cc1ccccc1F)Nc1cc(S(=O)(=O)N2CCCC2)ccc1Cl,7.57%
14,CC(OC(=O)c1ccccc1CCc1ccccc1)C(N)=O (stereo not shown),9.08%
15,O=C(O)c1cccc(S(=O)(=O)N2CCCC2)c1,-9.91%
16,CN1CCN(Cc2nc(-c3cccs3)no2)CC1c1ccccc1 (stereo not shown),7.35%
17,CN=C(Nc1ccc(C(=O)OC)cc1)SC1CC(=O)N(c2ccccc2F)C1=O (stereo not shown),9.15%
18,Cn1c(Cc2csc(N)n2)nnc1SCC(=O)NCc1ccccc1,8.74%
19,CC(=O)Oc1ccc(C)cc1-n1nc2ccccc2n1,12.2%
20,COC(=O)c1ccccc1S(=O)(=O)N1CCC(C(=O)NC2CCCCC2)CC1,6.59%
21,c1ccc(Oc2cccc(Oc3ccccc3)n2)cc1,19.4%
22,COc1ccc(S(=O)(=O)n2nc(-c3ccc(Cl)cc3)cc2N)cc1,7.28%
23,Cc1cccc(NC(=O)COC(=O)c2cc3ccccc3oc2=O)c1,2.1%

row,Compound,"hERG current change (%, negative = inhibition) at 1uM"
1,[O-][n+]1ccc(OCc2ccccc2)cc1,5%
2,CN(C)c1ccc(S(=O)(=O)N2CCCCC2)cc1NC(=O)CCNC(=O)c1ccc(Cl)cc1,-3.82%
3,Cc1ccccc1N(CC(=O)Nc1ccccc1C(=O)O)S(C)(=O)=O,10.5%
4,CCN(CC)S(=O)(=O)c1ccc(N2CCOCC2)c(NC(=O)c2ccc3ccccc3c2)c1,17%
5,Cc1[nH]c2ccccc2c1C(=O)C(=O)Nc1ccc2c(c1)OCO2,16.2%
6,O=C(NCCCN1CCCC1)c1ccc2c(c1)N(Cc1ccccc1F)C(=O)c1ccccc1S2(=O)=O,14.4%
7,O=C(COC(=O)/C=C/c1cn(-c2ccccc2)nc1-c1cccnc1)Nc1ccc(Cl)cc1Cl,3.67%
8,ClCCOCOCCCl,15.3%
9,OCCNc1ncnc2c1ncn2Cc1ccccc1,-5.06%
10,Cc1ccc(NC(=O)Cn2ncc3ccccc32)c(Cl)c1,12.3%
11,COC(=O)C1=C(c2cccc(OC)c2OC)C[C@@H]2CC[C@H]1N2C(=O)NCCNC(C)=O,10.2%
12,COc1ccc(C2=NNC(c3cccnc3)=Nc3ccccc32)cc1,-1.11%
13,Cc1nn(-c2ccccc2)c2sc(C(=O)OCN3C(=O)c4ccccc4C3=O)cc12,0.937%
14,Cc1ccc(C(=O)NCCC(=O)N2CCC3(CC2)NCCc2[nH]cnc23)cc1,4.25%
15,CCOc1ccc(OCc2ccc(C(=O)N(CC)CC)cc2)cc1,12%
16,CCC(CC)C(=O)Nc1ccccc1NC(C)=O,13.3%
17,CS(=O)(=O)c1ccc(Cl)c(NC(=O)COC(=O)c2ccc(-n3cnnn3)cc2)c1,7.31%
18,S=c1[nH]nc(Cc2cccc3ccccc23)o1,15.1%
19,Nc1nc2c(Cl)cc(Cl)cc2s1,13.8%
20,CC1(c2nnc(-c3cccc(Cl)c3)o2)CC(c2cccc(F)c2)=NO1 (stereo not shown),11.9%
21,O=C(NC(=S)Nc1cccnc1)c1ccccc1,12.9%
22,Cc1cc(C)c2c(=O)n(CC(=O)NC3CCCC3)sc2n1,12.1%
23,CCOC(=O)c1oc2ccccc2c1NC(=O)c1cc(OC)cc(OC)c1,6.96%

row,Compound,"hERG current change (%, negative = inhibition) at 1uM"
1,O=C(CS(=O)c1cccc(C(F)(F)F)c1)Nc1ccc(Cl)cc1Cl (stereo not shown),9.06%
2,CN(C)S(=O)(=O)c1cccc(C(=O)c2nccn2C)c1,6.54%
3,Cc1ccc(NC(=O)CN2CCCCC2)c2c1CC(C)(C)O2,6.6%
4,Cc1nc2ccccn2c1C(=O)NNC(=O)Nc1cccc(C(F)(F)F)c1,5.42%
5,O=C(Cn1nnc(N2CCCC2)n1)N/N=C/c1ccc(Cl)cc1,10.5%
6,O=C(O)c1cc2ccccc2c2cc(Br)ccc12,17.1%
7,N#Cc1c(N2CCOCC2)nc(N)c2c(N)nc3c(c12)CC(CCl)O3 (stereo not shown),13%
8,O=C(NCCn1ccc2ccccc21)C1CCCCC1,9.47%
9,O=c1sc2ccccc2c(N2CCCC2)c1[N+](=O)[O-],11%
10,CCN1N=C(c2ccccc2)CCC1=O,12.4%
11,CCOC(=O)C1CCN(C(=O)c2ccc(N3CCOCC3)c([N+](=O)[O-])c2)CC1,-5.14%
12,COc1ccccc1N1CCN(C(=O)Cc2c(C(=O)O)[nH]c3ccc(Cl)cc23)CC1,10.7%
13,CCOC(=O)c1ccc(NC(=O)CSc2nnc(CNC(=O)c3c(F)cccc3Cl)o2)cc1,5.76%
14,COC(=O)C1=C(c2ccccc2)C[C@@H]2CC[C@H]1N2C(=O)N1CCC(C)CC1,6.57%
15,CC(C)NC(=O)CN1CCC(O)(c2ccccc2)CC1,10.6%
16,Cc1cc(C(=O)Nc2ccc(OCc3ccccc3)cc2)c(C)o1,9.28%
17,COCC(=O)N1CCC(Oc2ccc(C(=O)N(C)CCCC3CCCC3)cc2)CC1,19.3%
18,COc1cc(Br)c(CC(=O)O)cc1OC,-2.8%
19,O=C(CSc1nnc(-c2cccs2)n1Cc1ccccc1)N1CCc2ccccc2C1,6.49%
20,Cc1cc(-c2csc(N)n2)c(C)n1CCC(C)C.Cl,5.16%
21,Cc1ccc(C(C)(C)NC(=O)C2CCC(=O)N(CC3CCCCC3)C2)cc1 (stereo not shown),17.5%
22,CCOc1cc(S(=O)(=O)N(CC)CC)ccc1F,3.67%
23,Cc1ccc(C(=O)NNC(=S)Nc2cccc3ccccc23)s1,16.1%

row,Compound,"hERG current change (%, negative = inhibition) at 1uM"
1,O=C(c1ccc(COc2ccc(Br)cc2)o1)N1N=C(C(F)F)CC1(O)C(F)F (stereo not shown),13.4%
2,Cc1nc(-c2cc(C#N)c(Sc3cccc(C(F)(F)F)c3)nc2C)cs1,6.52%
3,CCN(CC(=O)NCc1cccs1)S(=O)(=O)c1cccc(Br)c1,11.9%
4,COc1cc(NC(=O)c2ccc(NC3=NC4CS(=O)(=O)CC4S3)cc2)cc(OC)c1OC (stereo not shown),8.58%
5,COc1ccc(CNC(=O)CN(C2CCCCC2)S(C)(=O)=O)cc1,-0.49%
6,O=C(CSc1ccccc1)Nc1cccnc1,22.1%
7,COc1ccccc1N(CC(=O)NC1CCCCC1)S(C)(=O)=O,21.4%
8,CCOC(=O)c1ccc(NC(=O)CC2Sc3ncnn3C2=O)cc1 (stereo not shown),19%
9,COc1cccc(C(=O)N/N=C(/c2ccccc2)c2ccccn2)c1,15.7%
10,Cc1cc(OCC(=O)N(C)Cc2ccccc2)cc(C)c1Cl,4.53%
11,C[C@]12CCC(=O)C=C1CC[C@@H]1[C@@H]2[C@@H](O)C[C@]2(C=O)[C@@H](C(=O)CO)CC[C@@H]12,10.1%
12,O=C(NC(c1ccccc1)c1ccccc1)c1ccc(CO)cc1,-3.21%
13,O=C1NC(=S)N(c2ccccc2)C(=O)C1C(c1ccncc1)C1C(=O)NC(=S)N(c2ccccc2)C1=O (stereo not shown),13.3%
14,O=C(NCCc1ccccn1)c1n[nH]c(=O)c2ccccc12,-13%
15,CCCc1[nH]nc2c1C1(CCN(C(=O)OCc3ccccc3)CC1)C(C#N)=C(N)O2,8.08%
16,O=C1C(Cl)=C(N2CCOCC2)C(=O)N1c1ccccc1,9.44%
17,O=C(O)CC1(CC(=O)N2CCOCC2)CCCC1,11.2%
18,Cc1cccc(C)c1NC(=O)C(=O)NCCCN1CCOCC1,11.7%
19,O=C(c1ccccc1)N1CCN(C(=O)c2ccccc2)C1c1ccccc1,8.71%
20,Cc1onc(-c2ccccc2Cl)c1C(=O)Nc1nnc(-c2ccc(Cl)cc2Cl)s1,23%
21,Cc1nn(C)c(C(=O)NC2C3CC4CC(C3)CC2C4)c1Cl (stereo not shown),8.83%
22,COc1cc(OC)c2cc[nH]c2c1,17.1%
